# The other results are listed elsewhere or left out.
# B1: chr1:163112212:163112213:-_ENSG00000143248_ENST00000313961|hu_hu|hu_hu_hu_mus_False|1_8 (ssRNA)
# RNA: GGGAGUUCUACAGUCCGACGAUCUUUUAUUAUCAGUAAGAGUGAGUUACAUACUAGGCAAAGUAUUGGAUACAAUAAUCAGGAAACAAACACUAUUGGUCCAGAAUUUAAAACUUUAUGAGCGAAGGCUUACAAAUGGAUUUACAACAGAGGAUUGAGCAUCA
# B2: chr14:22612544:22612545:+_ENSMUSG00000021770_ENSMUST00000119430|mus_mus|FALSE|FALSE (ssRNA)
# RNA: GGGAGUUCUACAGUCCGACGAUCAGCCAAAUGCAACGUAUCCAGGAGCCUGGGACAAAGUAUUCAUUUUCAUUCCAUAACUACUGUAUAUUUAACAACAAACUCAUUACAGAGAGAGAGUCUUCAUCCAAUUAGUCUUUUCAUCAACAGAGGAUUGAGCAUCA
# B3: chr6:67234166:67234167:+_ENSMUSG00000036371_ENSMUST00000042990|mus_hu|FALSE|FALSE (ssRNA)
# RNA: GGGAGUUCUACAGUCCGACGAUCUGAAGAAUGCAUAAUCUCUGAAAAUUAUGAAAACAUCCCUGCUACCAAUACAUUUCUAAAUACAAAACUGACUACCAUAUUUGUUACUUCUGUGUAGCGGGAGAAGUUCAUUUUUAAAACCAACAGAGGAUUGAGCAUCA
# B4: 19470457_19479411_542_3pUTR_ENSMUSG00000028228_ENSMUST00000029885|mouse|control|control (ssRNA)
# RNA: GGGAGUUCUACAGUCCGACGAUCGUAUGGAUCUGACUUCCCAAACAGAUCCUUAUUAUCCAGUUUUCUGGCUUCCAUUUCAAACAAUACCACUCUGUUAUCCUUUAUUUCUUCUGCUGAAAUCGUAAUACUCCCUUUCCCUGCCAACAGAGGAUUGAGCAUCA
# B5: 176637863_176637983_2568_CDS_ENSG00000165671_ENST00000439151|human|control|control (ssRNA)
# RNA: GGGAGUUCUACAGUCCGACGAUCUAAAACAUGUUUCACCACUGCUGUUUCUAUGUCACUUGAAUCCCUGGUUUUCUCAUGCAUAUUGUUCAGUAGUUUUAGACCAUCCACUUUCCCACUUUUAGAAAUGCUGGCCAAAGGAGACAACAGAGGAUUGAGCAUCA
# B6: 39339409_39339529_308_3pUTR_ENSG00000214114_ENST00000397572|human|control|control (ssRNA)
# RNA: GGGAGUUCUACAGUCCGACGAUCUCUCGUCCUGAGAAAGUGCUCACAGUGCUUUGCAGUAGCCGAGGAGGGUGUUUAGAAUCAUAUAUUUUGGCUUCAGCUUUUAUCUUUGGAGUCUCCUUGAGUCGUGGCUGACUUGAUGUGCAACAGAGGAUUGAGCAUCA
# B7: 57535670_57543589_642_3pUTR_ENSG00000140262_ENST00000343827|human|control|control (ssRNA)
# RNA: GGGAGUUCUACAGUCCGACGAUCAUGAAGGUGCUUGCCCUCCAGGUCUUGGCCACUGACUGGUACCUGUGAGAGGUGAAGGUGAUCCAACUGGUGUUGAUGGAUUUGACGGAAAACUACUGCUGGUAUGGUCAGGAGAAUAAACAACAGAGGAUUGAGCAUCA
# B8: chr9:123603995:123603996:-_ENSMUSG00000025245_ENSMUST00000165754|mus_mus|FALSE|FALSE (ssRNA)
# RNA: GGGAGUUCUACAGUCCGACGAUCACAGAAUAAAGCAAUUACAAAUUUAGGAAAAUGUAAUAAUUAUCUAAAGCAAAAACUAUUGAGCCUAGAAUAACUCUAAAAUGUUAUUUUGAGGUCCAAAACUAUGUGUUAAGAACUUAGCAACAGAGGAUUGAGCAUCA
# B9: chr1:225611761:225611762:-_ENSG00000143815_ENST00000272163|hu_mus|hu_hu_hu_mus_True|1_78 (ssRNA)
# RNA: GGGAGUUCUACAGUCCGACGAUCCCAGGCCAUCGGCCUCUGACCACUUCACCCUCAGCAAAUUUCCUACUUGGCAUUUUCUAAAAUUAGUCUGGCCGCGCUCCGGCGGGAACUCCAGCCACUCCAGGACAGUCACCCGCACAGCAACAGAGGAUUGAGCAUCA
# B10: 118046813_118053763_277_CDS_ENSMUSG00000017132_ENSMUST00000017276|mouse|control|control (ssRNA)
# RNA: GGGAGUUCUACAGUCCGACGAUCCUUUUUAGGAUCCAUGUUAAAUUUCUUUCUGCCCAUGGCUACCUGUUUGUUCCUCUGCAUGUUUUUCCUUUCCUCUGUGGAUCCCAGGCUUUCAAUUUCAUUAGCAACUUCUGCUAUCUCCAACAGAGGAUUGAGCAUCA
# B11: 44840585_44845828_1337_CDS_ENSMUSG00000019849_ENSMUST00000099858|mouse|control|control (ssRNA)
# RNA: GGGAGUUCUACAGUCCGACGAUCCUCUCGGAAAACCAUGGGCUCCAGUUCCUCUUUGGUAAGAUCGCAGUGGUAAAUGACACCUGGAGAUAGGAAGGAUGUGAACUGGUAGAAGAUCUCAGAGUCCUUCUUGCGCCCACUGUACAACAGAGGAUUGAGCAUCA
# B12: chr11:23187360:23187361:+_ENSMUSG00000020290_ENSMUST00000020538|mus_hu|FALSE|FALSE (ssRNA)
# RNA: GGGAGUUCUACAGUCCGACGAUCGCUCACCCAACCAGAUAUUAACUUUAAAGUUUCCCUUUUUACAGUUCGCAUACUUCUAAUCAAUGGUUGCUUUGUAACCAUUUCACCAUUAGCUUGGAUAGCUGCAGAAAUAUUUUCACUCAACAGAGGAUUGAGCAUCA
# B13: 73041748_73041868_1190_CDS_ENSMUSG00000016382_ENSMUST00000114059|mouse|control|control (ssRNA)
# RNA: GGGAGUUCUACAGUCCGACGAUCAAAGGCCAAGUUCAGUUUGGGGUUUCCGCUGACAACAUCAGCUGGAGUAACGAACUGUCUGCAACCUAAUUUAUCUGCUUGUUGAAGCAUACUUUCGGCUCUCUUUAAAUCAUCAGUUUCCAACAGAGGAUUGAGCAUCA
# B14: chr6:30809960:30809961:-_ENSMUSG00000025607_ENSMUST00000048774|mus_hu|FALSE|FALSE (ssRNA)
# RNA: GGGAGUUCUACAGUCCGACGAUCACUUGAUGCAGCUUCUUGGGCUUCAUUGAUCCAGCGCUUAACCACAUCAUAGCUUAUCUUCAUCAUGUGCAGGGAAGAUACCAGUGCUGAACUGGAUACACUGGAAACUUUAUCCACAAUCAACAGAGGAUUGAGCAUCA
# B15: chr1:115282363:115282364:-_ENSG00000009307_ENST00000339438|perfect_dup|FALSE|FALSE (ssRNA)
# RNA: GGGAGUUCUACAGUCCGACGAUCAUCAUCUCCUACUUUUAAGUCUUGGAGGUUGCCAUUAUAUUGUGAACAGUGGAAGAAAAGUCUAGCUUGCCGUUCUGAACACUGAAUGAAUCCGUAAGAGGUCAAGAGUUUUUCAAUAACCAACAGAGGAUUGAGCAUCA
# B16: chr11:87793471:87793472:-_ENSMUSG00000020483_ENSMUST00000020775|mus_mus|mus_mus_mus_hu_False|18_58 (ssRNA)
# RNA: GGGAGUUCUACAGUCCGACGAUCUGGACUUGAAAAUAAAAGAAUAAGCUGGAUCCCCCACCCCCCCACAUUGUCAACCCUAUGCGAGAGUUUUGAAGGCGACUCAUGAAAAUCAGCCUCAAUUGGCGCAAUGACCACCCCACCCAACAGAGGAUUGAGCAUCA
# B17: 124382131_124386908_2824_CDS_ENSMUSG00000008153_ENSMUST00000008297|mouse|control|control (ssRNA)
# RNA: GGGAGUUCUACAGUCCGACGAUCAAAGCCCACGCAUACCACAAUGAUGAGAGUCGCAGCACUGGGGACCAUGGAGUUCCGGUGGGAGCUGGCCAGGCUGUGUCCAGCCAUCUCAGGAGGAGGCUGGUGACCCCGGUGCAGGAACAACAGAGGAUUGAGCAUCA
# B18: chr12:39756943:39756944:-_ENSG00000139116_ENST00000544797|hu_mus|hu_hu_hu_mus_False|18_58 (ssRNA)
# RNA: GGGAGUUCUACAGUCCGACGAUCGGUUUGGCUGUUACCCCCAAGGGAAUCCUGCAAGAGUCUUGUCAGCUUAGAGUCUCUAUAGGGGACAUGGGUGGCUCUCUUGCUCUUGUCCCCCAAGGCACUUAUUACAUUCCCAAGAGCCAACAGAGGAUUGAGCAUCA
# B19: chr2:119791414:119791415:+_ENSMUSG00000033943_ENSMUST00000110774|mus_hu|motif|central (ssRNA)
# RNA: GGGAGUUCUACAGUCCGACGAUCUACUUUACUGAAGGCUUGAAUUUGUUAAUUCUGAUUGAAAAGGUGAGGGAAUGGGAGCGGCUUAGGAUAUGAAAAAAGAAAAUUUUACUGAAUGACACAAAGUCCUUCACUUUGGUAUUCCAACAGAGGAUUGAGCAUCA
# B20: chr17:45761549:45761550:+_ENSG00000108424_ENST00000290158|hu_hu|motif|central (ssRNA)
# RNA: GGGAGUUCUACAGUCCGACGAUCGACAUGGAAGGGAGGAUAUAAACGAGGAGUUGGAGAAAAACGCAAGCCCAGUUUUUGCGGGAGUGGAAAUGAAAGUGGGAAUGAGGGUCUUGUUUUUAGUCCUCUAAGGACCAGGAAGCACAACAGAGGAUUGAGCAUCA
# B21: 181683477_181683597_5564_CDS_ENSMUSG00000026491_ENSMUST00000027768|mouse|control|control (ssRNA)
# RNA: GGGAGUUCUACAGUCCGACGAUCAGUUCUCUUCUUAGGAGUGGCAACUGCUGAAGGCUCUUGUUCUGAUGUGACAUUCAGGCUUAGGGCAUGCUGCCUUCUUGUGAGAGUUCUAGAAGAAACCAUGUCAUCAUUCUGGCUGGUCAACAGAGGAUUGAGCAUCA
# B22: chr5:80946147:80946148:-_ENSG00000145687_ENST00000505980|hu_hu|FALSE|FALSE (ssRNA)
# RNA: GGGAGUUCUACAGUCCGACGAUCUGUUUGAGCUGAUUUCUGAGCUCCUACAUGGAGCAGAUAUUCAUAUACGUAGAGUGCUAACUUCUCCCGGGCCUGGCUGUCGGACGGGACGGCGCUGCUGUUACUCUUGCCUUUGCCGUACAACAGAGGAUUGAGCAUCA
# Molecular target: T1, UNK ZnF1-3 (human, UniProt Q9C0B0 31-174)
# T1 sequence: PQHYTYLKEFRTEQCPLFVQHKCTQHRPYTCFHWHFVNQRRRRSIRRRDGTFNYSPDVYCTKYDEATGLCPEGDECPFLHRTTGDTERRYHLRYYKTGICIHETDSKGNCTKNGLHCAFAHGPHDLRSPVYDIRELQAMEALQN
# Experiment: nsRBNS (natural sequence RNA bind-n-seq); RBNS binding buffer (assumed for nsRBNS): 25 mM Tris pH 7.5, 150 mM KCl, 3 mM MgCl2, 0.01% Triton X-100, 500 ug/ml BSA, 20 U/ml SUPERase-In, 4 C; UNK is unkempt and MSI1 is Musashi-1; names of the RNAs are library labels; protein concentration not given here; high values mean tight binding
row,Binder,binding signal [enrichment R]
1,B1,0.801
2,B2,0.914
3,B3,1.13
4,B4,0.598
5,B5,0.988
6,B6,0.75
7,B7,1.12
8,B8,0.685
9,B9,1.2
10,B10,0.253
11,B11,0.769
12,B12,0.549
13,B13,0.737
14,B14,0.841
15,B15,1.19
16,B16,1.35
17,B17,1.21
18,B18,0.71
19,B19,1.74
20,B20,2.26
21,B21,0.546
22,B22,0.648
